According to PubChem BioAssay AID995 (National Center for Advancing Translational Sciences (NCATS), 2007):
Where “and” joins values, the source holds several entries; their conditions need not be identical. Equal entries are not always repeated. Among all 72,000 compounds or so, about 710 (0.99%) were called active. Inconclusive means that the source gave no clear call. Such entries were picked first, then a sample of the others. Calls follow the shape of the dose curve; as a rule, active = well fitted inhibition curve with a large enough effect; inconclusive = small, poorly fitted or top-dose-only effect; inactive = no such curve, though single readings can be large or run the other way. A potency beside an inconclusive call is a rough fit, not a confirmed value.

Experiment: qHTS Assay for Inhibitors of the ERK Signaling Pathway using a Homogeneous Screening Assay; also: nearly all actives have a fitted effect of over 55% in size
Conditions: HEK293-V1b, vasopressin-stimulated pERK AlphaScreen; activity, negative = inhibition: at 57.5 µM (top of the series) unless noted
Source text: qHTS Assay for Inhibitors of the ERK Signaling Pathway using a Homogeneous Screening Assay; also: nearly all actives have a fitted effect of over 55% in size
NIH Chemical Genomics Center [NCGC]
NIH Molecular Libraries Screening Centers Network [MLSCN]
Assay Submitter (PI): Dr. Wei Zheng, NCGC/NIH
The Ras/extracellular-signal-regulated kinase (ERK) mitogen activated protein (MAP) kinase signaling pathway (ERK1/2 cascade) plays is a key role in transmitting signals from the cell surface to the nucleus (Nishida and Gotoh 1993; Chang and Karin, 2001). The cascade is initiated by the small G-protein Ras, which recruits Raf […], where activation occurs. Alternatively, this pathway can be activated by elevating intracellular cAMP.
Activation of the ERK pathway is essential in increased cell division and cell survival. Sustained and constitutive activation of the ERK pathway, however, has been linked to uncontrolled cell proliferation, increased cell survival, and tumor progression. Thus, the ERK has been as an attractive target for cancer chemotherapy in the past few years (Sebolt-Leopold and Herrera, 2004). Given its physiological and pathological importance, assessment of ERK phosphorylation has been broadly performed in both basic research and drug discovery. Most assays for the measurement of ERK phosphorylation use the antibody-based detection methods, such as western blot and ELISA. These assays require multiple reagent additions with cell wash steps and are not suitable for high throughout screening.
The current cell-based ERK phosphorylation assay was performed using AlphaScreen platform. AlphaScreen is a two bead-based proximity-dependent chemical energy transfer luminescent assay platform. The assay reagents (ERK SureFire(TM) kit) were supplied from TGR BioSciences (Australia). In the presence of specific antibodies, phosphorylated ERK will bring "donor" and "acceptor" beads to a proximity range (<200 nm), and subsequently lead a chemical luminescent reaction upon exciting donor beads with 680 nm laser. To exclude the assay-related false positives, we used a biotinylated rabbit IgG to perform counter-screen. The biotinylated antibody mimics the phosphorylated ERK1/2 for bringing streptavidin coated beads and protein-A coated beads to a proximity range for the AlphaScreen detection.
NCGC Assay Protocol Summary:
HEK293 cells stably expressing type-1 vasopressin receptor (V1b) were maintained in DMEM medium (Invitrogen, Carlsbad, CA) at 37C under a humidified atmosphere containing 5% CO2 and 95% air. The medium contained 10% FBS, 2 mM L-glutamine, non-essential amino acid, pyruvate and 50 U/ml penicillin and 50 ug/ml streptomycin (Invitrogen). The aliquots of frozen cells were stored at -135C and used for the compound screening. All compounds were screened as titrations from 0.6 nM to 46 uM final concentration. Vasopressin was used to stimulate the ERK phosphorylation pathway. The ERK phosphorylation in cells was determined using an AlphaScreen assay kit provided by PerkinElmer. Data were normalized to the controls for basal activity (DMSO only) and 100% activation (25 nM vasopressin). AC50 values were determined from concentration-response data modeled with the standard Hill equation.
(1) Seed 4 ul/well of resuspended frozen HEK293 cells containing 2000 cells in white 1536-well plates for overnight with 1% FBS at 37C under a humidified atmosphere containing 5% CO2 and 95% air.
(2) Add 23 nL compounds in DMSO solution. The final titration was 0.6 nM to 46 uM.
(3) Incubate at 37C for 30 min.
(4) Dispense 0.5uL vasopressin (25 nM in final)
(5) Incubate at 37C for 5 min.
(6) Dispense 0.5uL of 1:2 diluted 5x lysis buffer.
(7) Incubate at 37C for 10 min.
(8) Dispense 1.5uL of mixture of activation buffer and reaction buffer with AlphaScreen beads (streptavidin donor beads and protein-A acceptor beads, 10 ng/well for each).
(9) Incubate at room temperature for 5 hr.
(10) Detect the assay plate in an EnVision plate reader (PerkinElmer) using the AlphaScreen detection mode.
[…]
% is scaled to controls: 0 for no effect and ±100 for the full control effect; potency is read from the fitted curve at half-maximal effect; tags tell the direction and shape of the fitted curve.

Potency, inconclusive:
Cc1cc2cc3c(C)cc(=O)oc3c(C)c2o1 6.31 µM [inhibitor, single point]
N#Cc1ccccc1-c1ccc2ncnc(NCc3ccccc3)c2c1 3.16 µM [inhibitor, partial curve]
O=C(O)CSCc1cnn(-c2ccccc2)c1-n1cccc1 39.8 µM [inhibitor, single point]
Cc1ccccc1-c1cncnc1NCc1cccnc1 10 µM [inhibitor, partial curve]
CCOC(=O)N1CCc2c(sc3c2C(=O)NC(c2ccccc2)N3)C1 (configuration not stated) 2.51 µM [inhibitor, full curve, poor fit]
O=C1c2ccccc2C(=O)N1CCCc1nc2ccccc2c(=O)n1-c1cccnc1 25.1 µM [inhibitor, partial curve, poor fit]
c1cc(CN2CCCCC2)cc(OCCCNc2nc3ccccc3s2)c1 7.94 µM [inhibitor, full curve]
CCCC[C@@H]1C[C@H]1C(NC(=O)c1cccnc1)c1ccc(Cl)cc1 (some centres not stated) 7.94 µM [inhibitor, full curve]
CCCCNS(=O)(=O)c1ccc2nc(SCC(=O)Nc3sccc3C#N)[nH]c2c1 25.1 µM [inhibitor, single point]
Cn1cccc1Cc1nnc(SCC(=O)Nc2ccc(F)cc2)n1CCc1ccccc1 25.1 µM [inhibitor, partial curve]
Cc1ccc(N(CC(=O)N2CCN(c3ccc(F)cc3)CC2)S(=O)(=O)c2c(C)nn(C)c2C)cc1 31.6 µM [inhibitor, single point]
CCCc1ccc(OCc2ccc(C(=O)N3CCN(c4ccccn4)CC3)o2)c(OC)c1 39.8 µM [inhibitor, single point]
CCOc1ccc(S(=O)(=O)n2cnc3cc(C)c(C)cc32)cc1 39.8 µM [inhibitor, single point]
CCCc1nc(N)c(C#N)c(N)c1C#N 12.6 µM [inhibitor, partial curve]
CCN(CC)c1ccc(NC(=O)c2c(OC)cccc2OC)c(C)c1 12.6 µM [inhibitor, partial curve]
Cc1ccc(SCCNC(=O)CN(c2ccc3c(c2)OCO3)S(C)(=O)=O)cc1 39.8 µM [inhibitor, single point]
c1ccc2c(c1)CC(N1CCN(c3cccc4c3OCCO4)CC1)C2 39.8 µM [inhibitor, single point]
O=C(Cn1cccc1C(=O)c1ccccc1)NCc1ccccn1 0.02 µM [inhibitor, full curve, poor fit]
NC[C@H](O)c1ccc(O)c(O)c1 39.8 µM [inhibitor, single point]
COCCn1c(=O)c(-c2cccs2)nc2cncnc21 0.0631 µM [inhibitor, full curve, poor fit]
CC(=O)O[C@@]1(C(C)=O)CCC2C3C=C(Cl)C4=CC(=O)C5CC5[C@@]4(C)C3CC[C@]21C (some centres not stated) 2.51 µM [inhibitor, single point]
CN(C)c1ncnc2ccc(-c3ccccc3C(F)(F)F)cc12 25.1 µM [inhibitor, partial curve]
CCCc1cc(=O)[nH]c(SCC(=O)c2cc(C)n(CCOC)c2C)n1 25.1 µM [inhibitor, single point]
O=C1CC(N2CCN(C3CC(=O)N(CCc4ccccc4)C3=O)CC2)C(=O)N1CCc1ccccc1 (configuration not stated) 2 µM [inhibitor, partial curve]
CCOC(=O)C(C)Sc1nc2c(c(=O)[nH]c(=O)n2C)n1C/C=C(/C)Cl (configuration not stated) 15.8 µM [inhibitor, partial curve]
CCn1c(NCc2ccc(N(C)C)cc2)nc2ccccc21 25.1 µM [inhibitor, partial curve]
COc1cc2c(cc1OC)-c1cc(NC3CC3)nc(=O)n1CC2 25.1 µM [inhibitor, single point]
Cc1[nH]nc2c1C(c1cn[nH]c1-c1ccc(F)cc1)C(C#N)=C(N)O2 (configuration not stated) 7.94 µM [inhibitor, partial curve]
C=C(C)CN(CC)C(=O)CSc1nc2ncc(Cl)cc2[nH]1 15.8 µM [inhibitor, partial curve, poor fit]
O=C(OCc1nc2ccccc2s1)C1CCN(C2=NS(=O)(=O)c3ccccc32)CC1 39.8 µM [inhibitor, single point]
Cn1nc(-c2ccc(Cl)cc2)c2cc(C(=O)N3CCOCC3)sc21 39.8 µM [inhibitor, single point]
CCOC(=O)C1=C(C)NC(=S)NC1c1cccc(O)c1 (configuration not stated) 25.1 µM [inhibitor, partial curve]
CC(C)N(Cc1nc(-c2ccccc2)no1)C(=O)c1ccc(Cl)cc1 31.6 µM [inhibitor, single point]
O=C(CSc1ncnc2nc[nH]c12)N1CCN(c2ccc(Cl)cc2)CC1 31.6 µM [inhibitor, single point]
CC(=O)C(C)Oc1ccc2c3c(c(=O)oc2c1)CCCC3 (configuration not stated) 31.6 µM [inhibitor, single point]
CCc1c(C)c2ccc(OCC(=O)OC(C)C)c(C)c2oc1=O 39.8 µM [inhibitor, single point]
Cn1c(SCC(=O)Nc2cc(=O)n(C)c(=O)n2C)nnc1C12CC3CC(CC(C3)C1)C2 25.1 µM [inhibitor, single point]
COc1cc(OC)cc(-c2cc3nc(C)c(CCC(=O)NC(C)CCc4ccco4)c(C)n3n2)c1 (configuration not stated) 1.58 µM [inhibitor, partial curve, poor fit]
Cc1ccccc1-c1nc(N(C)C)c2ccccc2n1 7.94 µM [inhibitor, partial curve]
Cc1cnc(CNc2ncnc3ccc(-c4ccc(N(C)C)cc4)cc23)cn1 15.8 µM [inhibitor, partial curve]
Cc1cc2c(ccc3[nH]onc32)n1 15.8 µM [inhibitor, single point]
COc1cc2c(C(=O)c3ccccc3)c3c4c(cc(OC)c(OC)c4c2cc1OC)CCN3C 10 µM [inhibitor, partial curve, poor fit]
Cc1ccccc1Cn1nc(C)c(NC(=O)c2cc(-c3cccs3)on2)c1C 39.8 µM [inhibitor, single point]
CCNc1sc(C(=O)c2cccs2)c(N)c1-c1nc2ccccc2s1 25.1 µM [inhibitor, single point]
Cc1cccc(-c2nc(CS(=O)CC(=O)N3CCc4ccccc4C3)c(C)o2)c1 (configuration not stated) 31.6 µM [inhibitor, single point]
COc1cc2ccc(=O)oc2c(O)c1O 15.8 µM [inhibitor, partial curve] and 31.6 µM [inhibitor, single point]
O=C(CSc1nc2ccccc2o1)Nc1ccc(N2CCOCC2)c(Cl)c1 31.6 µM [inhibitor, single point]
CCOc1ccc(NC(=O)Nc2ccc3c(c2)N(C)C(=O)CS3)cc1 31.6 µM [inhibitor, single point]
O=C1CCCN1CCCNc1ncnc2c1[nH]c1ccc(Cl)cc12 31.6 µM [inhibitor, partial curve]

Potency, inactive:
CC(C)Oc1ccc(C(=O)Nc2ccc(N(C)C)cc2)cc1
O=c1nc2n(c3sc4c(c13)CCC4)Cc1ccccc1-2
O=C(O)c1cccnc1SC1CC(=O)N(Cc2ccccc2)C1=O (configuration not stated)
O=C(O)C1CC(=O)N(Cc2ccccc2)C1 (configuration not stated)
CC(C)c1cc(C(=O)Nc2cccc(Cl)c2)no1
COCc1[nH]nc2c1C(C1C=CCCC1)C(C#N)=C(N)O2 (configuration not stated)
Cc1ccc2[nH]c3c(=O)n(CCCN4CCN(C)CC4)cnc3c2c1
CCC(C)(C)N=C(NC#N)Nc1cccnc1
CS(=O)(=O)Nc1cccc(-c2cncnc2NCc2cccnc2)c1
CCNc1ncc2nc(-c3ccc(F)cc3)c(=O)n(C)c2n1
O=C(c1ccco1)N1CCC2(CC1)CN(Cc1cc(C(F)(F)F)cc(C(F)(F)F)c1)C2

Potency, active:
Cc1ccc2nc(NC(=O)CN(C)S(=O)(=O)c3ccc(Br)s3)sc2c1 3.98 µM
CCOC(=O)c1ccc(NC(=O)c2ccc(C)c(S(=O)(=O)N3CCOCC3)c2)cc1 3.16 µM
O=C1c2ccccc2C(=O)c2c(O)c(O)cc(O)c21 12.6 µM and 31.6 µM

activity, negative = inhibition, inactive:
COC(=O)NC(CC(C)=O)c1ccco1 (configuration not stated) 0.553% [at 11.5 µM]
CC(C)(C[C@@]1(C)NC(=O)NC1=O)OCc1ccccc1 10.6% [at 11.5 µM]
COCn1c2ccccc2c2nnc(C(=O)O)nc21 11.4% [at 11.5 µM]
C[N+]1(CCC[N+]2(C)C[C@H]3[C@H](C2)[C@H]2C=C[C@@H]3CC2)CCOCC1 (some centres not stated) 9.41% [at 11.5 µM]
